Test results: article PMC4336329 (PLoS ONE, 2015)
The whole screen tested about 310,000 compounds, of which about 2,200 (0.71%) showed an effect of 50% or more. The effect is printed as a negative number. This is one part of the list.

Biological target: human ether-à-go-go-related gene (hERG) potassium channel (human, UniProt Q12809)
Assay: primary screen, population patch clamp on CHO cells stably expressing hERG

human ether-à-go-go-related gene (hERG) potassium channel, sequence (Q12809 whole entry, looked up): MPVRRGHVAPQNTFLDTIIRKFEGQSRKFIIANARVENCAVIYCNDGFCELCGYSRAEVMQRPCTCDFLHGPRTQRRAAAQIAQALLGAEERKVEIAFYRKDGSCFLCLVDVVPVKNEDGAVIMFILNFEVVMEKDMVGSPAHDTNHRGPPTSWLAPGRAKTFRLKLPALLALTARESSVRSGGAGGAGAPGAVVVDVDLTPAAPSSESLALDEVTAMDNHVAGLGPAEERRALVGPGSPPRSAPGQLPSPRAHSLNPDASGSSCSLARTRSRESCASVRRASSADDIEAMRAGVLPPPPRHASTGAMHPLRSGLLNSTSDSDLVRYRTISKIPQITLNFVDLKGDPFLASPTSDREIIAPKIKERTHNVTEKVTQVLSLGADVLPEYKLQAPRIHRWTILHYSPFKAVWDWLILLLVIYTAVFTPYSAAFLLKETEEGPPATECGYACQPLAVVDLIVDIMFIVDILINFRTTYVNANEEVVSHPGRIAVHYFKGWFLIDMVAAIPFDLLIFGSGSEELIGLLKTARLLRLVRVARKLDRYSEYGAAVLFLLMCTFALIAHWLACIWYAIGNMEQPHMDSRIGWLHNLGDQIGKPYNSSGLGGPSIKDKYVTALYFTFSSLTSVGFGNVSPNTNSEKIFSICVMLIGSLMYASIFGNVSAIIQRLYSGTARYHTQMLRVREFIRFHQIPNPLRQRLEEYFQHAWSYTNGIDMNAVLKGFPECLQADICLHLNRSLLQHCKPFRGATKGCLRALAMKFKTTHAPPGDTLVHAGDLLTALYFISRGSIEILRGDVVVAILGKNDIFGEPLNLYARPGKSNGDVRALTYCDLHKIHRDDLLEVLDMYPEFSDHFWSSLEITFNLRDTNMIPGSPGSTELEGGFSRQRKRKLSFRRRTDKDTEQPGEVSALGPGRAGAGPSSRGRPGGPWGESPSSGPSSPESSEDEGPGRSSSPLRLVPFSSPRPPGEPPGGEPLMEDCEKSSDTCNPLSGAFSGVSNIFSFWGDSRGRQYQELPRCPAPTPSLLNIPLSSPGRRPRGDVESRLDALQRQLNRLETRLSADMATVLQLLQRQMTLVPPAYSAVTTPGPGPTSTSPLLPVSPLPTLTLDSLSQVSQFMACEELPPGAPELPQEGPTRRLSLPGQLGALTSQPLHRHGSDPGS

Row | Structure (SMILES) | hERG current change (%, negative = inhibition) at 1uM
1 | O=C(CN1CCN(Cc2cccc(F)c2)CC1)NCc1ccccc1 | 10.3%
2 | Cn1cc(Cl)c(C(=O)OCC(=O)Nc2ccccc2)n1 | 12.8%
3 | Cc1ccc(S(=O)(=O)N2CCN(C(C)CC(=O)O)CC2)cc1 (stereo not shown) | 14.4%
4 | Nc1c(C(=O)c2ccccc2)sc2nsc(SCCN3CCOCC3)c12 | 16.3%
5 | CC(C)CCn1c(N2CCOCC2)nc2c1c(=O)n(CC(N)=O)c(=O)n2C | 16.2%
6 | c1ccc(N/N=C2\CCCc3ccccc32)nc1 | 7.04%
7 | O=C(Nc1ccc(OC(F)(F)F)cc1)c1ccc2c(c1)no[n+]2[O-] | 8.74%
8 | Cc1c(OC(C)C(=O)NCc2ccccn2)ccc2c3c(c(=O)oc12)CCCC3 (stereo not shown) | 13.4%
9 | CC(C)CC(c1nnnn1Cc1ccco1)N1CCN(C2CCCC2)CC1.Cl (stereo not shown) | -10.4%
10 | COc1cccc2c(O)cc(=O)n(C)c12 | 11.6%
11 | N#Cc1ccc(/C=N/NC(=O)c2cc(-c3cccs3)nc3ccccc23)cc1 | 14.4%
12 | Cc1ccccc1-n1c(C)cc(/C=C2\NC(=O)NC2=O)c1C | 0.238%
13 | CCc1cc(=O)oc2cc(OCC(N)=O)c(Cl)cc12 | 8.81%
14 | CC(C)Cn1c(N)c(C(=O)NCc2cccs2)c2nc3ccccc3nc21 | 8.7%
15 | O=C(Cc1ccc(S(=O)(=O)N2CCOCC2)s1)Oc1ccc(F)cc1 | 9.37%
16 | CCC(C(=O)Nc1ncn[nH]1)(C(F)(F)F)C(F)(F)F | 1.81%
17 | CCN(Cc1nc2ccccc2c(=O)[nH]1)C(=O)c1cc(C2CC2)nn1-c1ccccc1 | 7.83%
18 | Cc1ccc(CN2C(=O)CCC2C(=O)NCCCN2CCCC(C)C2)cc1 (stereo not shown) | 9.09%
19 | Cn1c(O)c(C(=N)COc2cccc(Cl)c2)c(=O)n(C)c1=O | 0.965%
20 | Cc1nnc(N/N=C/c2cc([N+](=O)[O-])c(N3CCC(C)CC3)cc2N2CCC(C)CC2)n1N.Cl | 5.31%
21 | CCN1CCN(C(CNS(=O)(=O)c2ccccc2)c2cccnc2)CC1 (stereo not shown) | -3%
22 | CC(=O)Nc1ccc(NC(=O)C(C)Oc2ccccc2C(=O)NCc2ccccc2)cc1 (stereo not shown) | -11.7%
23 | Nc1ccccc1C(=O)OC1CSC1 | 14.9%

Row | Structure (SMILES) | hERG current change (%, negative = inhibition) at 1uM
24 | CCCC/C(O)=C1\C(=O)CC(C)(C)CC1=NCCCCCC(=O)O | 9.51%
25 | Cc1cc(CNC(=O)COc2ccc([N+](=O)[O-])cc2)c2ccccc2n1 | -11.5%
26 | CCCOC(=O)Nc1nc2ccccc2o1 | 14.9%
27 | Cc1cc(F)ccc1S(=O)(=O)Nc1ccc(C(=O)N(C)Cc2ccco2)cc1 | 1.17%
28 | O=C(c1cnn2c(C(F)(F)F)cc(-c3ccc(F)cc3)nc12)N1CCc2ccccc2C1 | 4.6%
29 | S=C(NNc1cccc(Cl)c1)NC1CCCCC1 | 5.2%
30 | CCOC(=O)Cn1cnc2scc(-c3ccc(C)cc3)c2c1=O | 13.5%
31 | COC(=O)COc1ccc(S(=O)(=O)N2CCc3ccccc3C2)cc1 | 1.48%
32 | CN(C(=O)C(Cl)Cl)C1CC2C=CC1C2 (stereo not shown) | 14.6%
33 | CCCN(CCC)Cc1c(C(=O)N/N=C/C(C)=C\c2ccccc2)nnn1-c1nonc1N | 31%
34 | CC1CCN(C(=O)COC(=O)c2cc(Cl)cc(Cl)c2N)CC1 | -2.25%
35 | O=C1CC(SCc2nc3ccccc3[nH]2)C(=O)N1c1ccc(F)cc1 (stereo not shown) | 9.76%
36 | Cc1ccc(C(C(=O)NC2CCCC2)N(C(=O)Cc2cccs2)c2ccc(C)c(C)c2)o1 (stereo not shown) | -22.8%
37 | Cc1ccc(NC2CCCN(C(=O)c3cnsn3)C2)cc1C (stereo not shown) | 14.3%
38 | COc1ccccc1N1CCN(/N=C(\C)c2ccc(O)cc2)CC1 | 14.2%
39 | Cc1ccccc1NS(=O)(=O)c1ccc(-c2ccc(=O)[nH]n2)o1 | -4.49%
40 | CCCCN(C(=O)Cc1ccc(S(=O)(=O)N2CCOCC2)s1)c1ccccc1 | 2.22%
41 | Cc1cc(NS(=O)(=O)c2ccc(NC(=O)c3cc(-c4cccnc4)nc4ccc(Cl)cc34)cc2)no1 | 1.9%
42 | Cc1cccc(NC(=O)c2cc(NC(=O)c3ccccc3)ccc2N2CCCCC2)c1 | 3.79%
43 | CC1=CC(C)(C)N(C(=O)CSc2nccn2C)c2cc(C)ccc21 | 12.4%
44 | CC(C)O.COc1cccc(C2C3=C(CC(C)(C)CC3=O)Nc3n[nH]c(C)c32)c1 (stereo not shown) | 6.07%
45 | COc1ccc(N2CCN(CCCNC(=O)C(=O)c3c[nH]c4ccccc34)CC2)cc1 | -40.6%
46 | NC(=O)C1CCN(C(c2ccccc2Cl)c2nnnn2Cc2ccc3c(c2)OCO3)CC1 (stereo not shown) | 1.07%

Row | Structure (SMILES) | hERG current change (%, negative = inhibition) at 1uM
47 | COc1ccc(Cn2nnnc2C(c2cc3cc(C)ccc3[nH]c2=O)N2CCOCC2)cc1 (stereo not shown) | -18.5%
48 | CCC(=O)Nc1ccc(C(=O)CSc2nc(N)cc(N)n2)cc1 | 5.66%
49 | CC12CCC(C(=O)NCc3ccccc3Cl)(C(Br)C1=O)C2(C)C (stereo not shown) | 14.2%
50 | COC(=O)C1CCN(C(=O)c2ccccc2Oc2ccccc2)CC1 | 10.6%
51 | O=C(N/N=C/c1ccc(C(=O)O)cc1)C1=NNC(c2ccccc2)(c2ccccc2)C1 | 6.8%
52 | Cc1cccc(/C=N\N=C\c2cccc(C)c2)c1 | 15.3%
53 | O=C(CN(Cc1ccc(F)cc1)C(=O)CNS(=O)(=O)c1ccc(F)cc1)NCc1ccco1 | 12.8%
54 | COc1cc(NS(=O)(=O)c2ccc(C)c(C)c2)c(OC)cc1Cl | -7.73%
55 | COc1ccc(S(=O)(=O)Cc2ccc(C(=O)N3CCCC3)o2)cc1 | 12.5%
56 | O=C(N/N=C/c1cccs1)c1ccccn1 | 9.21%
57 | Cc1cccc(Nc2nc(-c3ccc(F)c(C)c3)cs2)n1 | 17%
58 | CN(CCc1cn[nH]c1)C(=O)CC1C(=O)NCCN1Cc1ccccc1C(F)(F)F (stereo not shown) | 3.96%
59 | O=[N+]([O-])/C(C(Cl)=C(Cl)Cl)=C1\Nc2ccccc2O1 | 12.8%
60 | C/C(=N\NC(=O)COc1cccc(C)c1)c1ccc2ccccc2c1O | 12.3%
61 | Cc1cc(OC2CCCCC2)nc(-c2ccccc2O)n1 | 17%
62 | COc1ccc(N2CCN(C(=O)Cn3nnc(-c4ccc(N(C)C)cc4)n3)CC2)cc1 | 4.37%
63 | Cc1ccc(Nc2cc(C)nc3nc(C)nn23)cc1 | -3.09%
64 | COCCn1c(SCC(=O)N2CCCC(C)C2)nnc1-c1ccco1 (stereo not shown) | 15.2%
65 | Cc1ccc2c(c1)S/C(=C/c1ccc[n+](CCO)c1)N2C.[I-] | 21.4%
66 | Cc1ncn(C23CC4CC(CC(O)(C4)C2)C3)n1 | 2.55%
67 | COC(=O)[C@H]1C[C@@H]1[C@H](NC(=O)c1cnccn1)c1ccccc1 | 8.65%
68 | Cc1ccc(-n2c(C)nc3ccsc3c2=O)cc1 | 6.07%
69 | COc1ccc(-c2nnn(CC(=O)N(C3CCCC3)C(C)C(=O)NC3CCCC3)n2)cc1OC (stereo not shown) | -15.8%

Row | Structure (SMILES) | hERG current change (%, negative = inhibition) at 1uM
70 | C=CCc1cccc(/C=N/NC(=O)C(C)Nc2cccc(C)c2)c1O (stereo not shown) | 9.73%
71 | CCCCN(C)C(=S)Nc1ccc2nc(N3CCN(CC)CC3)cc(C)c2c1 | -46.4%
72 | CCCCN(CCCC)Cc1ccc(N)cc1 | 2.73%
73 | CC(C)N(CCNC(=O)c1ccc(OCC2CCCO2)cc1)C(C)C (stereo not shown) | 15.9%
74 | COc1cccc(NC(=O)COc2ccccc2)c1 | 8.86%
75 | CN(C(=S)Nc1ccc(SC(F)F)cc1)C(c1ccccc1)c1ccccc1 | 6.2%
76 | Cc1[nH]nc(Nc2ccccc2)c1[N+](=O)[O-] | -3.5%
77 | CNC(=O)c1c(C)noc1C | 12.7%
78 | Cc1ccc(Cn2ncc3c(NN)ncnc32)cc1 | 14.2%
79 | N#CCSc1nc(-c2ccccc2)nc2ccccc12 | 11.4%
80 | COc1ccc(NC(=O)Nc2cccc(C)n2)cc1 | 11.2%
81 | Cc1cc(C(=O)OCC(=O)NC2CCS(=O)(=O)C2)c(C)n1-c1ccccc1 (stereo not shown) | 14.3%
82 | Cc1cc(C)c(NC(=O)CS(=O)CC(=O)NCCN2CCCCCC2)c(C)c1 (stereo not shown) | 13.4%
83 | COc1cc(NC(=O)c2cccc(NC3=NC4CS(=O)(=O)CC4S3)c2)cc(OC)c1OC (stereo not shown) | 12.7%
84 | CCCc1ccc(OCc2ccc(C(=O)N3CCCC3)o2)cc1 | 17.7%
85 | COc1ccccc1NC(=O)O/N=C(\N)c1ccccc1 | 8.15%
86 | CCN(CC)S(=O)(=O)c1ccc(S(=O)(=O)NCC2CCCO2)cc1 (stereo not shown) | 13.5%
87 | COc1ccc(-c2nnc(SCC(=O)Nc3ccc(Cl)cc3)n2C)cc1 | 24.2%
88 | CCCC(C(=O)N1CCOCC1)N1C(=O)C2C3C=CC(C3)C2C1=O (stereo not shown) | 12.5%
89 | COc1ccccc1C(=O)Nc1ccc(OCC(=O)N2CCCCC2)cc1 | 5.76%
90 | CCn1cc2nc(SCC(=O)Nc3ccc(OC)c(OC)c3)n(Cc3ccc(OC)cc3)c(=O)c2n1 | 8.17%
91 | CCc1nc(SCC(=O)c2ccccc2)c2c(=O)n(C)c(=O)n(C)c2n1 | 4.97%
